Source: the RNAGym collection of RNA variant scans (doi:10.7554/elife.90254)
Read counts are not given, so values of variants with three or more changes are uncertain.

B1: LINE1-mini (parent)
chain: GGCAGAGCUCAACACAGCGUGGCAAAGUGGCUGUGGCUAGACUGCC

Variants of: B1
Assay: self-cleavage, relative activity (ratio to wild type); higher = more cleavage; in vitro, sequencing; the parent is a self-cleaving ribozyme

Variant	self-cleavage
GGCAGAGUUCAAUACCGCGUGGCAAAGUGGCUGUGGCUUGACUGCC	0.04
GGUAGAGCUCAACUCAGCGUGGCAAAGUCGCUGUGGCUAGACUGCC	0.09
GGAAGAGUUCAACACAGCGGGGCAAAGUGGCUGUGCUUAGACUGCC	0.05
GGCAGAGCUAAAAACAGCGUGGCAAAGUGGCUGUGGCUAGACUCCC	0.01
GGCAGAGCUCAACACACCGUUGCAAAGUGGCUGUGGCUAGACUCCC	0.07
GGCAGAGGUCAACACAGCGUGGCAAAGUGGCUGAGGCUAGACCGCC	0.02
CGCAGAGGUCAACACAGCAUGGCAAAGUGGCUGUGUCUAGACUGCC	0
GGCAGAGCUCAACACAGCCUGACAAAGUGGCUGUGCCUAGACUGCC	0.17
GGCAGAGCGCAACACAUCGUGGCAAAGUCGCUGUAGCUAGACUGUC	0.05
GGCAGAGCUCAACACAUCGUGGCAAAGUGGCUGUGGGUUGACUGCC	0.02
GGCGGAGCCCAACACAGCGUGGCAAAGUGGCUGUGGCUAGACCGCC	0
GGCAGAGCUCAACACAGGGUAGCGAAGUGGCUGUGGCUAGACUGCC	2.32
UGCAGGGCUCAACACAGCGUGGCAAAGUAGCUGUGGCUAGACUGCC	0.06
GACAGAGCUAAACACAGCGUGGCGAAGUGGCUGUGGCUAGGCUGCC	0.02
GGCAGGUCUCACCACAGCGUGGCGAAGUGGCUGUGUCUAGACUGCC	0
GGCAGAGCUCAUCACAGCGUGGCAAAGUCGCUGUGGCUAGCCUGCC	0.05
AGUAGAGCUCAAAACAGCGUGGCAAAGUGGCUGUGGCUAGACUGCC	0.9
GGCAGAGCUCAAAACAGGGUGGCAAAGUGGCUGUGGCUAUACUGCC	0.05
GGCAUAGCUCAACACAGCGUGGCAGAGUUGCUGGGGCUAGACUGCC	0

Variant	self-cleavage
GGCAGAGCUCAACACAGCGUGCCAAAGUGGCCGUGGCUAGACUGUC	0.05
GGCAGAGCUCAACACGGCGUGGCAAUGCGGUUGUGUCUAGACUCCC	0
GACAGAGCUCAACACAGCGUGGCAAAUUUGCUGUGGCUAGAUUGCC	0.2
UGAAGAGCUCAUCACAGCGUGGCAAAGCGGCUGUGGCACCACUGCC	0.09
GGCAGAGCUGAACACAGCGUGGCAAUGUGGCCGUGGCUAGACUGCC	0.02
GGCAAAGUUCAACACAGCGUGGCAAAAUGGCUGUGGCUAGAAUGCC	0.04
GGAAGAGCCCAACUCAGCGUGGCAAAGUGGCUGUGGCUAGACUGCC	0.05
CGCAGAGCUCAACACAGCGUGGCAAAGUGGCUGUGGGUAGCCGGCC	0
AGCUGAGCUCAACACAGCGUGGCAAAGUGGAUGUGGCUAGACUGCC	0.49
GUCAGAGCUUAACACAGCGUGGCAAAGUGGCUGUGCCUAGACUGCC	0.01
GGCUGAGCUCAACACAGCGUGGCAAAUUGGCUGUGGCUAAACUGCC	0.11
GGCGGAGCUCAACACAACGUGGCUAAGUGGCUGUGGCUAGACUGCC	0.03
GGCAGAGCUCAACACAGCGUGGCAGAGUGGAUGUGGGUAGACUGCC	0.02
GGUUGAGCUCAACACGGCGUGGCAAAGUGGCAGUGGCUAGACUGCC	0.03
GGCAGAGUUCAACACAGAGUGGCAAAGUGGCUGUGGGUAGACUGCC	0.07
GGCAGAGCUCAACACAGCGUCGGAAACUGGCUGUGGCUAGACUCCC	0.14
GGAAGAGGUCGACGCAGCGUGGCAAAGUGGCUUUGGCUACACUGCC	0.01
UGCAGAGCUCAACACGGCGCGGCAAAGUGGCUGUGGCUAGACUGCG	0.41
CGCAGAGCUCAACACCGCGUGGCAAGGUGGCUGUGGCUAGACUGCC	0.08

Variant	self-cleavage
GGCAGAGCACAACACAGCGUGGCAAAGUGGCUGUGGCUAAACUGUC	0.08
GGCAGAGCUCAACGCAGCGCCGCAAAGUGGCUGUGACUAGACUGCC	0.05
GGCAGAGCUCACCACAGCGUGUCAAAGUGGCUGUGGAUAGACUGCC	0.01
GGCUGAGGUCAACACAGGGUGGCAAAGUGGCUGUGGCUAGACUGCC	0.05
GGCAAAGCUCAACACAGCGUGGCAACGUGGCUGUGGCUAGACUGCU	0.12
GGCAAAGCUCAACACAGCGUGGCAAAGUGGCUGUGGCCAGACUGGC	0.08
CGCAGAACUCAACCGCGCGUGGCAAAGUGGCUGAGGCUAGACUGCC	0
GGCAGAGCUCAACACAGCGUGGCAAAGUGUCAGUGGCCAGACUGCC	0.05
UGCACAGCCCAACACAGCGUGGCAAAGUGUCUGUAGUUAGACUGCC	0.02
GGCAGAGCUCAACACAGCUUGGCACAGUGGCUGUGGGUAGACUGCC	0.03
GGCAGGGCUCAACAAAGUGUGGCAAAGUGGCUGCGGCUAGACGGCA	0.02
AGCAGAGCUCAACACAGCGGGGCAAAGUGGCUGUGUCUAGACUGCC	0.01
UGUAGAGCUCAACACAGCGUGGCAAAGUGGCUGUGGCUAAACUGCU	0.09
GGCAGAGCUCAACAAAGCGUGGCAAAGUGGCUCGGGCUAGACUGGC	0.12
GGGAGAGUUCAACACCGCGUGGCAAAGUGGCUGUGGCUAGACUGCC	0.04
GGUAGAGCCCAAGACAGCGUGGCAAAGUGGCUGUGGGUAGACUGUC	0.01
GGCAGAGCUCAACACAGCGUGACAAAGUGGCUGUUGCUAGAUUGCC	0.11
GGCAGAGCUCAACACAGCAAGUUAAAGUGGCGGUGGCUAGACUGCC	0.04
